Source: US20210030841A1 (KEROS THERAPEUTICS, published 2021)

Columns and labels:
Experiment in all cases: SPR, Biacore 3000; receptor captured on chip, ligand in solution
BMP-9 = target: T1, BMP-9 (UniProt Q9UK05 320-429)
T1 construct: the embodiments speak of human BMP9; also called bone morphogenetic protein 9
T1 sequence (looked up): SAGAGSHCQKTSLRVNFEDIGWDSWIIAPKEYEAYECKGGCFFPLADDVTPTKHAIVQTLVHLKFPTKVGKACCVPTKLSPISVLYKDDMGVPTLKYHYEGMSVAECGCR
Description: (§1) The Biacore 3000 was used to measure the kinetics of the interactions between the ActRIIa variants and the ligands Activin A, Activin B, growth differentiation factor 11 (GDF11), and BMP-9. ActRIIa variants were transiently expressed in HEK293 cells and purified from the conditioned media using Protein-A Sepharose chromatography. The ActRIIa variants were immobilized on the chip (CM4 or CM5) with capture antibodies ([…]) in flow cells 2-4 to ensure proper orientation. Flow cell 1 was used as a reference cell to subtract any nonspecific binding and bulk effects. HBS-EP+ buffer from GE Healthcare™ was used as a running buffer. Each ligand was run in a concentration series at 40 μl/min to avoid mass transport effects. The data was analyzed using Scrubber2 by BioLogic™ Software to calculate the KD of each interaction (Table 5).

[1] = target: T2, growth differentiation factor 11 (GDF11) (UniProt O95390 299-407)
T2 construct: the embodiments speak of human GDF-11
T2 sequence (looked up): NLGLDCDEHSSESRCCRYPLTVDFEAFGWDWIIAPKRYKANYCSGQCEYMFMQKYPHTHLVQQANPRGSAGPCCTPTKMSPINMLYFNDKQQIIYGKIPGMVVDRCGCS
Description: as §1

Activin B = target: T3, Activin B (UniProt P09529 293-407)
T3 construct: the embodiments speak of human activin B
T3 sequence (looked up): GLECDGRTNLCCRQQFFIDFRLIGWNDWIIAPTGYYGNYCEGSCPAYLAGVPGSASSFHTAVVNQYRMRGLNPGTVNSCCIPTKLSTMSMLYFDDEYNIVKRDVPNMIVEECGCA
Description: as §1

Activin A = target: T4, Activin A (UniProt P08476 311-426)
T4 construct: the embodiments speak of human activin A
T4 sequence (looked up): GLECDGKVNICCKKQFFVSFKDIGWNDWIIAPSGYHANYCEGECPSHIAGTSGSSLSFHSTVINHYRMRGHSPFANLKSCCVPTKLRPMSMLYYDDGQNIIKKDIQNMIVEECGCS
Description: as §1

Kd (BMP-9): 25 nM
Kd [1]: 0.081 nM
Kd (Activin B): 0.373 nM
Kd (Activin A): 1 nM
B1: ActRIIa (SEQ ID NO: 73), human ActRIIa, extracellular portion (receptor, not shown: a dimerising Fc or GST)
chain: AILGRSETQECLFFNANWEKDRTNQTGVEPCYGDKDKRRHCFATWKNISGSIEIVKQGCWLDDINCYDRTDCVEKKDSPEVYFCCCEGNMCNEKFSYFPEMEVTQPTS
notes: Expressed in HEK293, purified on Protein-A Sepharose, captured on the chip by anti-mouse antibodies; also called wild-type extracellular ActRIIa
